Data reported in PubChem BioAssay AID686979 (National Center for Advancing Translational Sciences (NCATS), 2013).
Hit rate of the full screen: of about 420,000 compounds, about 50,000 (12%) were called active. The shares of active, inactive and inconclusive entries below differ from those in the screen. The call rests on the fitted dose curve; in most records, active means well fitted inhibition curve with a large enough effect; inconclusive means small, poorly fitted or top-dose-only effect; inactive means flat fitted curve, though single readings scatter. No potency is given beside an inconclusive call; the fits are too rough. Some structures have more than one record in an assay (separate samples or runs), and their calls can disagree.

assay: qHTS for Inhibitors of human tyrosyl-DNA phosphodiesterase 1 (TDP1): qHTS in cells in presence of CPT; settings: chicken DT40 Tdp1-/-;hTDP1 cells + 20 nM CPT, ATP luminescence, 48 h; activity change, negative = growth inhibition: at 46.2 µM (top of the series); further: nearly all actives have a fitted effect of over 55% in size
Procedure, shortened: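 Chicken DT40 Tdp1-/- cells complemented with human TDP1, 400 cells/well, exposed to compounds plus 20 nM camptothecin for at least 48 h at 37 C; viability read as ATP content by CellTiter-Glo luminescence.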
On the % scale 0 is the no-effect control and ±100 the full control effect; potency means the concentration at half of the fitted maximal effect; tags describe the fitted curve by direction and shape.

Which Potency does the source give for `O=C(CCN1C(=O)/C(=C/c2cccs2)SC1=S)Nc1ccc(C(=O)O)c(O)c1` here?
Its Potency is “inactive”.

Which Potency does the source give for `O=C(NCC1COc2ccccc2O1)c1cccs1` (stereo unspecified) here?
The Potency was inconclusive [inhibitor, partial curve, poor fit].

For `Cc1cccc(CSc2nnnn2-c2ccccc2)c1`, which Potency is on record?
The Potency was inconclusive [inhibitor, full curve, poor fit].

With `Cc1ccc(C(=O)NNC(=O)CSc2nnc3c(n2)[nH]c2ccc(C)cc23)cc1` as the compound, how does the Potency read?
Its Potency is inconclusive [inhibitor, single point].

Which Potency does the source give for `CC(=O)N1CCC2(CC1)CN(Cc1cc(C(F)(F)F)cc(C(F)(F)F)c1)C2` here?
The Potency was “inactive”.

With `CS(=O)(=O)N1CCC(C(=O)NCc2ccc(F)cc2)CC1` as the compound, how does the Potency read?
Its Potency is “inactive”.

For `COC(=O)C1=CN(c2cccc(OCc3ccccc3)c2)C(N)=C(C#N)C1c1cccc(OC)c1OC` (stereo unspecified), which Potency is on record?
Its Potency is active: 14.6 µM.

Which Potency does the source give for `Cc1cc(=O)oc2cc(OCC(=O)N3CCN(C(=O)C4COc5ccccc5O4)CC3)c(Cl)cc12` (stereo unspecified) here?
The Potency was inconclusive [inhibitor, single point].

Which Potency does the source give for `COc1ccc(C=NNc2nc3c([nH]2)c(=O)n(C)c(=O)n3C)cc1` here?
The Potency was inconclusive [inhibitor, partial curve, poor fit].

With `O=C(c1cccs1)c1ccc(-c2cccs2)s1` as the compound, how does the Potency read?
Its Potency is “inactive”.

For `Cc1nc(NC(=S)NC(=O)c2ccccc2)sc1C`, which Potency is on record?
Its Potency is “inactive”.

Which Potency does the source give for `COc1ccc(-c2cc(-c3ccccc3)nc(SC(C)C(=O)O)c2C#N)cc1` (stereo unspecified) here?
Its Potency is inconclusive [inhibitor, single point].

For `NC(=O)CC(NC(=O)Cc1ccc(Br)cc1)c1ccc(NCCc2ccc(F)cc2)c([N+](=O)[O-])c1` (stereo unspecified), which Potency is on record?
Its Potency is inconclusive [inhibitor, single point].

Which Potency does the source give for `S=c1[nH]nc(-c2ccc(Br)cc2)n1-c1ccc2c(c1)OCCO2` here?
The Potency was inconclusive [inhibitor, single point].

Which Potency does the source give for `Cn1cnc([N+](=O)[O-])c1Sc1ccccc1` here?
Its Potency is active: 18.4 µM.

With `COc1ccc(N(C(=O)C(C)C)S(=O)(=O)c2ccc3c(c2)n(C)c(=O)n3C)cc1` as the compound, how does the Potency read?
Its Potency is “inactive”.

With `COCc1c(C(=O)Nc2nc(C)cs2)oc2ccccc12` as the compound, how does the Potency read?
Its Potency is inconclusive [inhibitor, single point].

With `Brc1cccc2sc(N3CCN(c4ccccc4)CC3)nc12` as the compound, how does the Potency read?
Its Potency is “inactive”.

For `N#Cc1nc(COc2ccc(Cl)cc2)oc1N1CCCCCC1`, which Potency is on record?
The Potency was “inactive”.

With `Cc1ccccc1NS(=O)(=O)c1ccc(C(=O)NCC(C)(C)N2CCOCC2)cc1` as the compound, how does the Potency read?
Its Potency is inconclusive [inhibitor, partial curve].

For `O=C(CCCCC(=O)NN=Cc1ccc2c(c1)CCC2)NN=Cc1ccc2c(c1)CCC2`, which Potency is on record?
Its Potency is inconclusive [inhibitor, single point].

For `Cc1cc(C)c(S(=O)(=O)N2CCCCC2)c(C)c1N(C)S(=O)(=O)c1ccccc1`, which Potency is on record?
Its Potency is active: 11.6 µM.

Which Potency does the source give for `Cn1c(=O)c(=O)n(C)c2cc(S(=O)(=O)N3CCCC3C(=O)NCc3cccs3)ccc21` (stereo unspecified) here?
Its Potency is “inactive”.

For `O=C(NCC1(c2ccccc2)CCCC1)C(=O)Nc1cccc(C(F)(F)F)c1`, which Potency is on record?
Its Potency is inconclusive [inhibitor, partial curve, poor fit].

With `COc1ccccc1N1CCN(C(=O)C(CC(C)C)NC(=O)C2CCCCC2)CC1` (stereo unspecified) as the compound, how does the Potency read?
The Potency was inconclusive [inhibitor, partial curve, poor fit].

Which Potency does the source give for `C=C(C)Cn1c(=O)c2c(nc3n2CCCN3CCc2ccccc2)n(C)c1=O` here?
The Potency was inconclusive [inhibitor, single point].

For `N#CCCN(C1CCCCC1)S(=O)(=O)c1cccc2nsnc12`, which Potency is on record?
The Potency was inconclusive [inhibitor, single point].

With `CCOc1ccc(N2CC(C(=O)Nc3ccccc3N3CCCC3)CC2=O)cc1` (stereo unspecified) as the compound, how does the Potency read?
The Potency was inconclusive [inhibitor, single point].

With `CCC1=C/C(=C/N(C)c2ccccc2)C(=O)S1` as the compound, how does the Potency read?
The Potency was inconclusive [inhibitor, partial curve].

Which Potency does the source give for `COc1ccc2nc(NS(=O)(=O)c3ccc(C)cc3)c(Nc3cc(Cl)ccc3OC)nc2c1` here?
Its Potency is inconclusive [inhibitor, single point].

Which Potency does the source give for `CCc1ccccc1OCC(=O)Nc1ccc(N2CCCC2)cc1C` here?
The Potency was inconclusive [inhibitor, single point].

Which Potency does the source give for `Cn1c(SCC(=O)NC(C)(C)C)nnc1-c1ccc(C(C)(C)C)cc1` here?
Its Potency is inconclusive [inhibitor, partial curve].

For `COc1ccccc1N(C(=O)c1ccco1)C(C(=O)NC1CCCC1)c1cccs1` (stereo unspecified), which Potency is on record?
Its Potency is “inactive”.

With `N#Cc1c(-c2ccc(F)cc2)nc(-c2ccccc2)[nH]c1=O` as the compound, how does the Potency read?
The Potency was inconclusive [inhibitor, single point].

For `CC(C)(CNC(=O)c1ccc(S(=O)(=O)Nc2ccc(Cl)cc2)cc1)N1CCOCC1`, which Potency is on record?
Its Potency is inconclusive [inhibitor, single point].

With `O=C(CN1C(=O)CSC1=O)Nc1ccc(F)c(F)c1F` as the compound, how does the Potency read?
Its Potency is inconclusive [inhibitor, single point].

For `CCCC1=C(C(=O)OCC)C(c2ccc(OC)c(C)c2OC)C(C#N)=C(N)O1` (stereo unspecified), which Potency is on record?
The Potency was inconclusive [inhibitor, single point].

For `CCn1c(C)nc2c1C(=O)c1ccccc1C2=O`, which Potency is on record?
Its Potency is inconclusive [inhibitor, partial curve].

With `CC1CCCCN1CCNC(=O)c1ccc2c(=O)n(CCc3ccccc3)c(=O)[nH]c2c1` (stereo unspecified) as the compound, how does the Potency read?
The Potency was inconclusive [inhibitor, single point].

Which Potency does the source give for `CN(C)CCCN(C(=O)c1ccc(S(=O)(=O)N2CCCCCC2)cc1)c1nc2cc3c(cc2s1)OCCO3` here?
Its Potency is inconclusive [inhibitor, single point].

For `O=C(C[n+]1ccc2ccccc2c1)Nc1cc(C(F)(F)F)ccc1Cl`, which Potency is on record?
Its Potency is active: 20.6 µM.

Which Potency does the source give for `CCOC(=O)C1=C(COC(=O)CCOc2ccc(OC)cc2)NC(=O)NC1C` (stereo unspecified) here?
Its Potency is “inactive”.

With `Cc1cc(C(=O)COC(=O)c2cccnc2Cl)c(C)n1CC1CCCO1` (stereo unspecified) as the compound, how does the Potency read?
The Potency was active: 23.1 µM.

Which Potency does the source give for `O=C(C1CCC1)N1CCN(c2cccc(C(F)(F)F)c2)CC1` here?
Its Potency is inconclusive [inhibitor, single point].

Which Potency does the source give for `COc1cc(C(=O)NCCOc2cc(C)ccc2C(C)C)cc(OC)c1OC` here?
The Potency was inconclusive [inhibitor, single point].

With `c1cncc(-c2nc(-n3ccnc3)c3ccccc3n2)c1` as the compound, how does the Potency read?
Its Potency is inconclusive [inhibitor, single point].

For `O=C(Nc1ccc(Cl)cc1F)c1cccc2ccccc12`, which Potency is on record?
Its Potency is inconclusive [inhibitor, single point].

For `O=C(NNc1cccc(Cl)n1)Nc1ccc(Cl)cc1`, which activity change, negative = growth inhibition is on record?
The activity change, negative = growth inhibition was inconclusive: -30.7% [inhibitor].

Which Potency does the source give for `O=C1CC(c2ccccc2)Cc2[nH]c(=O)c(-c3nc(-c4cccc(Cl)c4)cs3)cc21` (stereo unspecified) here?
Its Potency is active: 5.17 µM.

Which Potency does the source give for `CC(C)c1ccc(OCC(=O)NC2CC(C)(C)NC(C)(C)C2)c(Br)c1` here?
The Potency was inconclusive [inhibitor, single point].

With `COc1ccc2c(c1)C(c1ccc(Cl)cc1)NC(=O)C2` (stereo unspecified) as the compound, how does the Potency read?
Its Potency is inconclusive [inhibitor, partial curve].

For `COc1ccc(C2CC(c3ccc4ccccc4c3OC(C)=O)=NN2C(C)=O)cc1` (stereo unspecified), which Potency is on record?
The Potency was active: 10.3 µM.

For `C[C@@]12C(=O)Nc3ccc(F)cc3C(=O)N1[C@H]1c3cc(Cl)ccc3OC[C@@H]1[C@@H]2c1ccccc1`, which Potency is on record?
Its Potency is inconclusive [inhibitor, single point].

With `N#CC(C#N)=Cc1ccc(OCC(=O)N2CCOCC2)cc1` as the compound, how does the Potency read?
The Potency was active: 20.6 µM.

For `CC(=O)N(c1ccccc1)c1nc(/C=C/C(=O)Nc2c(C)cc(C)cc2C)cs1`, which Potency is on record?
The Potency was “inactive”.

For `COc1cccc(CNS(=O)(=O)c2c(C)[nH]c(C)c2C(=O)N2CCCCC2)c1`, which Potency is on record?
Its Potency is active: 25.9 µM.

With `COC(=O)c1sccc1S(=O)(=O)N1CCN(c2cccc(C)c2C)CC1` as the compound, how does the Potency read?
The Potency was inconclusive [inhibitor, single point].

For `O=C(CSc1n[nH]c(-c2ccccc2)n1)N1CCCCC1`, which Potency is on record?
The Potency was “inactive”.

Which Potency does the source give for `Cc1ccc(C)c(NC(=S)NC(C)C(c2ccccc2)N2CCN(C)CC2)c1` (stereo unspecified) here?
The Potency was inconclusive [inhibitor, single point].

With `CCOC(=O)COn1c(-n2nc(C)cc2C)nc2ccccc2c1=O` as the compound, how does the Potency read?
The Potency was inconclusive [inhibitor, single point].

Which Potency does the source give for `O=C(N/N=C/c1cc(Br)c(O)c(Br)c1)c1cc2c(ccc3ccccc32)o1` here?
Its Potency is active: 13 µM.

For `CCCCCCNC1=NCCS1`, which Potency is on record?
Its Potency is “inactive”.

With `O=C(CSc1nnc(CNc2ccccc2)o1)N1CCc2ccccc21` as the compound, how does the Potency read?
Its Potency is “inactive”.

Which Potency does the source give for `Cc1noc(/C=C/N(C)C)c1S(=O)(=O)N1CCCC(C(=O)Nc2cccc(F)c2)C1` (stereo unspecified) here?
The Potency was inconclusive [inhibitor, single point].

Which Potency does the source give for `O=S(=O)(Cc1ccc(Cl)cc1)Oc1ccc(Cl)cc1` here?
Its Potency is “inactive”.

Which Potency does the source give for `CN(C)Cc1ccccc1-c1cncnc1Nc1ccccc1` here?
Its Potency is inconclusive [inhibitor, partial curve, poor fit].

With `CCc1ccc(C(=O)Nc2ccc3c(c2)n(C)c(=O)n3C)cc1` as the compound, how does the Potency read?
Its Potency is inconclusive [inhibitor, single point].

With `CCN(CC)CCc1nc(-c2ccccc2)no1` as the compound, how does the Potency read?
The Potency was active: 6.51 µM.

For `Cc1nn(C)cc1CN(C)C(=O)c1nn2c(c1Cl)NC(c1cccs1)CC2C(F)(F)F` (stereo unspecified), which Potency is on record?
The Potency was inconclusive [inhibitor, partial curve, poor fit].

Which Potency does the source give for `N=c1c(C(=O)NCC2CCCO2)cc2c(=O)n3ccccc3nc2n1Cc1cccnc1` (stereo unspecified) here?
The Potency was “inactive”.

For `CCc1ccc(OCC(=O)NC(NC(=S)Nc2ccccc2OC)C(Cl)(Cl)Cl)cc1` (stereo unspecified), which Potency is on record?
The Potency was inconclusive [inhibitor, single point].
